Molecules are shown by their SMILES. Out of some 45,000 compounds screened, about 200 (0.44%) were called active. Not shown: some 7% with an inconclusive outcome. Calls follow the shape of the dose curve; as a rule, active = well fitted activation curve with a large enough effect; inconclusive = small, poorly fitted or top-dose-only effect; inactive = no such curve, though single readings can be large or run the other way. The list shows a part of the results.

This test can be described thus: qHTS of TDP-43 Inhibitors: NCGC Sytravon Library Screen. Also: 0% is about no effect; nearly all actives have a fitted effect of over 55% in size. The settings on record: yeast TDP-43 toxicity rescue, BacTiter-Glo growth, 24 h; series mostly up to 46.1 µM; growth rescue (activation): at the top concentration. The method in brief: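 TDP-43-expressing yeast, pregrown in raffinose, seeded at OD600 0.02 in galactose medium with compound for 24 hr at 30 deg C. Growth read by BacTiter-Glo luminescence, so rescue of toxicity appears as activation.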
For `COc1ccc2c(=O)c3c(=O)n(-c4ccccc4)c(-c4ccco4)nc3oc2c1`, the “growth rescue (activation)” value is inactive: -12.1%.
In the case of `O=C(O)CCCCCNC(=O)CSc1nnc(-c2ccco2)n1-c1ccccc1`, the “growth rescue (activation)” value is inactive: 7.04%.
Regarding `O=C(CSc1ccc(Cl)cc1)NN=C1CCCCCC1`, the “growth rescue (activation)” value was inactive: 8.3%.
With `CCOc1cc(/C=C2\C(=N)N3N=C(S(C)(=O)=O)SC3=NC2=O)ccc1OCCOc1cccc(OC)c1` the figure was inactive: 17.6%; with `O=C(COc1ccccc1F)NCCc1ccc2c(c1)OCCO2`, inactive: 6.78%; with `CCOc1cc(NC(=S)NCCCN(C)C)c(OCC)cc1NC(=O)C1CC1`, inactive: 3.93%.
Turning to `CCCCC(CC)CNC(=O)CCCCn1c(=O)[nH]c2ccsc2c1=O` (configuration not stated), the “growth rescue (activation)” value is inactive: 33.7%.
As to `N=C1C(c2nc3ccccc3s2)=C(O)CN1c1ccccc1`, the “growth rescue (activation)” value is inactive: 7.35%.
With `FC(F)(F)c1cc(-c2ccco2)nc(NCc2cccnc2)n1` the figure was inactive: 17.1%.
With `CC(=O)Nc1ccc(NC(=O)c2c(C)nn(-c3ccccc3)c2Cl)cc1C` the figure was inactive: -5.27%; with `CC(=O)N1CSCC1C(=O)O` (configuration not stated), inactive: 15.3%.
With `Cc1ccccc1C(=O)NC(CC(C)C)C(=O)NN1C(=O)c2ccccc2C1=O` (configuration not stated) the figure was inactive: 0.527%.
Take `O=C(CN1C(=O)C2C3C=CC(C3)C2C1=O)NCCN1CCCc2ccccc21` (configuration not stated): the “growth rescue (activation)” value is inactive: -7.49%.
Turning to `COc1cc2c(cc1NC(=O)COCC(=O)O)oc1ccccc12`, the “growth rescue (activation)” value was inactive: -4.62%.
Consider `CCN(CC)S(=O)(=O)c1ccc2c(c1)c(=O)c(C(=O)NCCc1ccccc1)cn2C`, for which the “growth rescue (activation)” value is inactive: 0.0758%.
With `S=C(NC1CCCC1)N1CCN(C/C=C/c2ccccc2)CC1` the figure was inactive: 10.7%; with `O=C(CN(Cc1ccccc1)C(=O)CCC(=O)Nc1nccs1)NCC1CCCO1` (configuration not stated), inactive: -22.3%; with `CCCCNC(=O)C1(C)CCN1C(=O)c1cc(-c2cccs2)oc1C` (configuration not stated), inactive: 9.13%.
With `O=C(CCc1ccc(S(=O)(=O)NC2CCCCC2)cc1)NCc1ccccn1` the figure was inactive: 0.978%; with `CC(C)C(C)(C#N)NC(=O)CSc1nc2scc(-c3ccc(F)cc3)c2c(=O)n1Cc1ccccc1` (configuration not stated), inactive: 26.1%; with `CCCCNC(=S)N=Nc1c(O)n(Cc2ccccc2)c2ccccc12`, inactive: 18.8%.
With `O=C(CCc1nnc(Cc2c[nH]c3ccccc23)o1)NC1CCCC1` the figure was inactive: -9.81%; with `COc1ccc(CNC(=O)COC(=O)c2ccccc2OCC(=O)Nc2ccc(SC(F)F)cc2)cc1`, inactive: -26%.
For the molecule `O=C(O)C1CCN(C(=O)COc2ccc(Br)cc2)CC1`, the “growth rescue (activation)” value is inactive: 11.8%.
With `COc1ccc(C(CC(=O)N2CCCC2)c2ccc(F)cc2)cc1` (configuration not stated) the figure was inactive: 29.8%; with `CC(C)n1c(O)c(N=NC(=O)Cc2csc(N3CCOCC3)n2)c2ccccc21`, inactive: 12.5%; with `Cc1cc(C)c(-c2cc(NC(=O)COC(=O)c3ccc(C#N)cc3)n(-c3ccccc3)n2)cc1C`, inactive: 13.2%.
With `COc1cc(OC)cc(-c2nc3nc(C)c(CCC(=O)NCC(OC)OC)c(C)n3n2)c1` the figure was inactive: 8.1%; with `O=C(O)c1ccc2nc(-c3ccccc3)sc2c1`, inactive: 32.6%; with `CN(CC(=O)NC1CC1)S(=O)(=O)c1ccc(Br)cc1`, inactive: -4.08%.
Regarding `Cc1ccc(S(=O)(=O)NCc2cn3ccsc3n2)c(C)c1`, the “growth rescue (activation)” value was inactive: 1.69%.
For the molecule `O=C(CSc1nc(O)cc(=O)[nH]1)N1CCOCC1`, the “growth rescue (activation)” value was inactive: -2.78%.
With `Cc1cccc(N2CC(c3nc4ccccc4[nH]3)CC2=O)c1` (configuration not stated) the figure was inactive: 1.99%.
With `CCC(C)(C)NC(=O)C(c1ccc(O)cc1)N(Cc1ccco1)C(=O)CCC(=O)Nc1ccccn1` (configuration not stated) the figure was inactive: -21.7%; with `O=C(NC(=S)Nc1cccc(NC(=O)c2ccccc2)c1)c1cccc([N+](=O)[O-])c1`, inactive: 4.31%.
With `O=C(NCC1CCCO1)c1ccc([N+](=O)[O-])s1` (configuration not stated) the figure was inactive: 21.3%.
`O=C(CCN1CCN(C/C=C/c2ccccc2)CC1)Nc1ccccc1F`: the “growth rescue (activation)” value was inactive: 9.83%.
With `CC(=O)NC(C)(c1ccccc1)c1nc(-c2cccc3cccnc23)cs1` (configuration not stated) the figure was inactive: 21.4%; with `COc1ccc(Cl)cc1Nc1ncnc2sc(C)c(S(=O)(=O)N3CCC(C)CC3)c12`, inactive: 3.08%.
With `CC(/C=C/c1ccccc1)=N\Nc1nc(C)cc(C)n1` the figure was inactive: 16.2%; with `Cc1ccc(-n2c(SCC(=O)NCCN3C(=O)CSC3=O)nnc2-c2ccccc2F)cc1`, inactive: 1.41%; with `O=C(O)c1ccc(NS(=O)(=O)c2ccc3c(c2)C2C=CCC2C(c2ccccc2F)N3)cc1` (configuration not stated), inactive: 1.4%.
With `N#CCC(=O)N/N=C/c1ccc(N2N=C(c3ccccc3)CC2c2ccccc2)cc1` (configuration not stated) the figure was inactive: 20.2%.
For the molecule `COC(=O)c1ccc(CNC(=O)COC(=O)CCC2CCCC2)cc1`, the “growth rescue (activation)” value is inactive: 8.08%.
With `CCOC(=O)C1(C)CCN1C(=O)c1csnn1` (configuration not stated) the figure was inactive: 8.09%; with `CCCN(C(=O)CSc1nnnn1C)c1c(N)n(Cc2ccccc2)c(=O)[nH]c1=O`, inactive: 7.26%; with `Cc1ccc(OCCC(=O)Nc2c(C)n(C)n(-c3ccccc3)c2=O)cc1`, inactive: -4.08%.
With `O=C(CN(Cc1ccccc1)S(=O)(=O)c1ccccc1)N/N=C/c1ccccc1C(=O)O` the figure was inactive: 6.91%; with `COc1cccc(N(C(=O)CNC(=O)c2ccco2)C(C(=O)NC2CCCCC2)c2cccnc2)c1` (configuration not stated), inactive: -10.3%.
With `Cc1ccc(-n2nc3c(c2NC(=O)c2ccc4c(c2)OCO4)CSC3)cc1` the figure was inactive: -4.17%.
Regarding `Cn1cc(C(=O)O)c(-c2ccc3c(c2)OCCCO3)n1`, the “growth rescue (activation)” value was inactive: 11.9%.
With `COc1cc(NC(=O)c2ccccc2C)c(OC)cc1NC(=O)CN1CCOCC1` the figure was inactive: -6.45%; with `O=C(NCCN1CCOCC1)c1ccc2c(c1)N(Cc1cccc(F)c1)C(=O)c1ccccc1S2`, inactive: 5.42%.
Turning to `CS(=O)(=O)Nc1ccc(C2=NN(S(C)(=O)=O)C(c3ccc4c(c3)OCO4)C2)cc1` (configuration not stated), the “growth rescue (activation)” value is inactive: 7.89%.
With `Cc1cc(C)cc(NC(=S)NCC2CCN(C(C)c3ccccc3)C2)c1` (configuration not stated) the figure was inactive: -5.11%; with `CCOC(=O)c1c(NC(=S)Nc2ccc(OC)cc2)sc2c1CCCCC2`, inactive: -11.5%; with `COc1ccc(OCC(=O)Nc2ccc(C)c(S(=O)(=O)N(C)C)c2)cc1`, inactive: -7.67%.
On to `COCCCNC(=O)c1c[nH]c2ccc(S(=O)(=O)N(C)c3ccccc3C)cc2c1=O`, for which the “growth rescue (activation)” value was inactive: -10.1%.
With `Cc1cc2oc(C(=O)N(Cc3ccc(N(C)C)cc3)Cc3ccco3)c(C)c2cc1Cl`, the “growth rescue (activation)” value was inactive: 20.7%.
Take `CC(C)(O)C#Cc1ccc(CN2CCN(Cc3ccccc3)C(CCO)C2)cc1` (configuration not stated): the “growth rescue (activation)” value was inactive: -14.2%.
With `CC(=O)C(C(C)=O)c1cc(NS(=O)(=O)c2ccccc2)ccc1NS(=O)(=O)c1ccccc1` the figure was inactive: -23.8%.
With `CN1C(=O)NC(c2ccc(O)cc2)C2=C1CN(c1ccc(O)cc1)C2=O` (configuration not stated) the figure was inactive: 11.1%; with `CC(=O)NCCc1c[nH]c2ccc(OCC(O)CNC(C)(C)C)cc12` (configuration not stated), inactive: -11.2%.
With `Cc1ccc(C(=O)Nc2cccc3[nH]c(C(F)(F)F)nc23)cc1` the figure was inactive: 6.55%; with `O=C(/C=C/c1cccs1)NC(=S)NNC(=O)c1ccccc1O`, inactive: -9.33%.
As for `Cc1cc(C)c(C)c(S(=O)(=O)NCC(=O)NCC2CCCCC2)c1C`, the “growth rescue (activation)” value is inactive: -11.4%.
Turning to `Cc1cccc(C(=O)OCC(=O)NC2CC2)c1O`, the “growth rescue (activation)” value was inactive: 3.75%.
With `COc1ccc(Nc2oc(/C=C/c3ccccc3OC)nc2C#N)cc1` the figure was inactive: 15%; with `O=C(Cn1nc(-c2ccccc2)ccc1=O)N1CCCCC1`, inactive: 1.47%.
With `CC(C)(C)c1ccc(NC(=O)CCNC(=O)c2ccco2)cc1` the figure was inactive: -5%; with `Cc1nc(C)c(C(=O)OCC(=O)NCc2ccccc2Cl)s1`, inactive: 0.346%; with `COc1ccc(OC)c(NC(=O)C(=O)NCc2ccncc2)c1`, inactive: 8.4%.
On to `Cc1cc(C)n2nc(SCC(=O)N3CCCC3)nc2n1`, for which the “growth rescue (activation)” value was inactive: 6.42%.
On to `COc1ccccc1/C=C1\SC(=S)N(NS(=O)(=O)c2ccccc2)C1=O`, for which the “growth rescue (activation)” value was inactive: -6.54%.
With `COc1cccc(-c2cc(C(F)(F)F)n3ncc(C(=O)N4CCc5ccccc5C4)c3n2)c1` the figure was inactive: -20.7%.
With `CCOC(=O)N1CCN(Cc2nc(CC3CC3)no2)CC1` the figure was inactive: -4.22%.
With `CCSc1nnc(NC(=O)[C@@H](NC(=O)c2ccc(C(C)(C)C)cc2)C(C)C)s1` the figure was inactive: 7.74%; with `O=C(CCN1C(=O)c2cccc([N+](=O)[O-])c2C1=O)NC1CCCCCC1`, inactive: 18.6%.
`CCCCCCn1c(=O)[nH]c2c(c1=O)CCC2`: the “growth rescue (activation)” value was inactive: 8.82%.
With `CCC(CC)C(=O)NCCCCc1ccccc1` the figure was inactive: 20.1%.
With `CCCOc1ccc(C2C(C(=O)OC)=C(C)N=C3SCCC(=O)N32)cc1OCC` (configuration not stated) the figure was inactive: 7.96%; with `O=C(Cn1c(=O)oc2ccccc21)Nc1ccccc1C(F)(F)F`, inactive: 14.2%.
As for `CNc1nc(C)nc(N/N=C/c2ccccc2)n1`, the “growth rescue (activation)” value was inactive: 8.69%.
With `COCCCNC(=O)/C(C#N)=C/c1c(N2CCCCCC2)nc2ccccn2c1=O` the figure was inactive: 5.95%.
For the molecule `COc1ccc(-n2cc(C(=O)O)c(=O)cc2C)cc1`, the “growth rescue (activation)” value is inactive: -1.47%.
With `Cc1cc(NC(=O)CSc2n[nH]c(-c3ccccc3Br)n2)no1` the figure was inactive: -16%; with `Cc1ccc(NC(=O)CSc2nc(N)cc(N)n2)cc1S(=O)(=O)N1CCOCC1`, inactive: -20.4%; with `Nc1cc(N)nc(SCC(=O)NCC(=O)Nc2ccc(F)c(F)c2F)n1`, inactive: -17.5%.
With `CCCc1nnc(SCC(=O)Nc2nccs2)o1` the figure was inactive: 4.26%; with `CN(CCOc1ccccc1)C(=O)C1CCC(=O)N(CCN2CCOCC2)C1` (configuration not stated), inactive: 11.4%.
With `CN1CCCC(OC(=O)c2cccc(S(=O)(=O)N3CCCCCC3)c2)C1` (configuration not stated) the figure was inactive: -0.0778%; with `O=C(COC(=O)c1sc2ccccc2c1Cl)NCC1CCCCC1`, inactive: 5.36%; with `NC(=S)N/N=C/c1ccc(-c2ccc(SC(F)F)cc2)o1`, inactive: 32.6%.
Regarding `Cc1nc(N2CCN(c3ccccn3)CC2)c2c(C)c(C(=O)N3CCN(c4ccccc4F)CC3)sc2n1`, the “growth rescue (activation)” value was inactive: 2.98%.
With `COc1cccc(N=CC=C2OC(C)(C)C(C)(C)O2)c1` the figure was inactive: -16.7%; with `CC1CC1c1ccc(/C=C(\C#N)C(=O)Nc2ccc(Cl)cc2Cl)o1` (configuration not stated), inactive: -3.93%.
With `CN(CCCC(=O)N1CCCC(C(N)=O)C1)S(=O)(=O)c1ccc(F)cc1` (configuration not stated) the figure was inactive: 9.31%; with `C/C(=N\NC(=O)CSc1nc(C)cc(C)n1)c1ccc([N+](=O)[O-])cc1`, inactive: -16.1%.
Take `COc1ccc(C(CC(=O)O)NC(=O)COc2ccc(C)cc2)cc1OC` (configuration not stated): the “growth rescue (activation)” value is inactive: 15%.
In the case of `CCOC(=O)NC(=O)CSc1nc2ccccc2[nH]1`, the “growth rescue (activation)” value is inactive: -1.31%.
With `CCCCCC(=O)NNC1CC(=O)N(c2ccccc2)C1=O` (configuration not stated) the figure was inactive: -16.2%.
With `CC(=O)c1ccc(OC(=O)CCc2nc3ccccc3s2)cc1` the figure was inactive: -16.4%; with `COC(=O)C1=C(C)NC(=S)NC1c1ccc(-c2cc(Cl)ccc2Cl)o1` (configuration not stated), inactive: 27.4%; with `Cc1nc(-c2ccccc2)sc1C(=O)O`, inactive: 25%.
`CC(C)CC(=O)N(Cc1ccc(F)cc1)C1CCS(=O)(=O)C1` (configuration not stated): the “growth rescue (activation)” value is inactive: 3.07%.
As for `CCCCC(=O)N(C)c1c(C)nc2ccc(C(=O)N(C)Cc3ccco3)cn12`, the “growth rescue (activation)” value was inactive: -3.12%.
As for `COC(=O)CSc1ccsc1C(=O)O`, the “growth rescue (activation)” value is inactive: 2.17%.

Source of the values: PubChem BioAssay AID1347073 (National Center for Advancing Translational Sciences (NCATS), 2019).
